# Measured values reported in patent publication US20190119348A1, “PARATHYROID HORMONE RECEPTOR 1 ANTAGONIST AND INVERSE AGONIST POLYPEPTIDES AND METHODS OF THEIR USE” (The General Hospital Corporation, priority 2016, published 2019).
# For some of these results: For at least one compound, name, drawing or mass did not settle the structure. Some entries share one result that the patent states for a list of compounds. Where a SMILES comes first, the peptide text is derived from it. [ ]: non-standard residue; d: D form. The star is where a group is joined. 5TAMRA = CN(C)c1ccc2c(c1)Oc1cc(N(C)C)ccc1C21OC(=O)c2cc(C(=O)*)ccc21
# Assays:
# Type in all cases: cell-based
# [1] = biological target: T1, PTHR1 (Homo sapiens, UniProt Q03431); experiment: Washout assay: agonist-induced cAMP response after antagonist pre-treatment and rinse (GP-2.3 / SGS-72 cells); settings: rinsed three times, then agonist
# T1 construct: expressed in transfected cells; host or cells: GP-2.3 (HEK-293 stably transfected with hPTHR1 and GloSensor)
# T1 sequence (Q03431 27-593): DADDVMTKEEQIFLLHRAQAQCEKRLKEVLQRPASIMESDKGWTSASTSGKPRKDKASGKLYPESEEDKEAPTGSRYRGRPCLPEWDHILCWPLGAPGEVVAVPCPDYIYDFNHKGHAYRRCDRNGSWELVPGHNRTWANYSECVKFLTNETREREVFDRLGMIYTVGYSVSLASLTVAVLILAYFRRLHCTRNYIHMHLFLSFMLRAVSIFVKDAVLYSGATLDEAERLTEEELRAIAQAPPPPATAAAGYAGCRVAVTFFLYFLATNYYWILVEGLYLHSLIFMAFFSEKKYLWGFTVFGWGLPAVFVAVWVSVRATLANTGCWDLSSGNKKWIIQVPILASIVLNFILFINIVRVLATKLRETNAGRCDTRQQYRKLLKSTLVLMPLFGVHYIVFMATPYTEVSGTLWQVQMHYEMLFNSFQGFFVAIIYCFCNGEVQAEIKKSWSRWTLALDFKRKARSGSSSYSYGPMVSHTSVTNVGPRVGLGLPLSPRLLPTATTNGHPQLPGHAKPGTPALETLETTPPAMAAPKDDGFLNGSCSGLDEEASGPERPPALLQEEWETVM
# [2] = biological target: T1, PTHR1; experiment: Antagonism of PTH(1-34)-induced cAMP response (GloSensor) in GP-2.3 cells; settings: inhibition of PTH(1-34)-induced maximum response; for IC50: read-out: corresponding nanomolar value of pIC50 (Table 4) (converted)
# Method: cAMP signaling was assessed in the HEK293-derived or SaOS2-derived cell lines stably expressing the luciferase-based GloSensor™ cAMP reporter (Hattersley et al., Paper presented at: Novel Signaling Mechanisms and Bone Cell Biology 2014; Binkowski et al., Methods in molecular biology. 756:263-271). HEK-293 cells were further transfected to stably express the hPTHR1, hPTHR1-H223R, or hPTHR1-T410P. The cells were seeded into 96-well white plates and were assayed 24 to 48 hours post-confluency. Assays were performed at room temperature in CO2-independent culture media (Life Technologies, Corp., Carlsbad, Calif.) containing 0.1% BSA (CIDB). The cells were pre-loaded with luciferin (0.5 mM in CIDB) for 15 minutes, then PTH peptides were added at varying concentrations. cAMP-dependent luminescence was measured at two-minute intervals using a PerkinElmer Envision plate reader. The time at which maximum luminescence (cps) observed with agonist alone, typically at 10-20 minutes after agonist addition, was used to obtain data from wells containing antagonist with or without agonist, to thus generate antagonist ligand dose-response curves. The resulting cps values were then plotted against ligand concentration using GraphPad Prism 7.0 software and a four-parameter logistics curve fitting equation, which yielded parameters of inhibitory potency (pIC50).
# Pharmacological properties of the ligands were assessed in cells expressing the PTHR1 and the GloSensor™ cAMP reporter. The assays used GP-2.3 cells, derived from HEK293 cells by stable transfection with the hPTHR1 and GloSensor™, as well as SGS-72 cells, which are derived from the human osteosarcoma cell line, Saos-2, in which is endogenously expressed the hPTHR1, by stable transfection with GloSensor™. Binding of representative polypeptides to the PTHR1 was assessed in GP-2.3 cells by radioligand competition methods (FIGS. 1A and 1B, Table 3).
# […] concentration of antagonist that inhibited the maximum response to PTH(1-34)-induced in the absence of antagonist (at ˜40 minutes) is reported in units of -log M (pIC50), and the corresponding nanomolar value is shown below each pIC50 value. Data are means of the number of experiments indicated (n). The PTH(1-34)-induced maximum luminescence was ˜80,000 cps and the basal was ˜1,000 cps. TMR indicates Lys13 modified at epsilon amino function with TMR, P vs. inhibition by dW12,Y34-bPTH(7-34).
# [3] = biological target: T2, endogenous hPTHR1 (Homo sapiens, UniProt Q03431); experiment: Antagonism of PTH(1-34)- and PTHrP(1-36)-induced cAMP response (GloSensor) in SGS-72 cells; settings: for pIC50 PTH(1-34) (Table 6): antagonist pre-treatment 15 minutes, PTH(1-34) 0.3 nM; for IC50: read-out: IC50 PTH(1-34) (Table 6, nanomolar value), antagonist pre-treatment 15 minutes, PTH(1-34) 0.3 nM
# T2 construct: Saos-2, in which is endogenously expressed the hPTHR1; endogenous in cells
# T2 sequence (Q03431 27-593): T1 sequence (Q03431 27-593)
# Method: cAMP signaling was assessed in the HEK293-derived or SaOS2-derived cell lines stably expressing the luciferase-based GloSensorTM cAMP reporter ([…] al., Paper presented at: Novel Signaling Mechanisms and Bone Cell Biology 2014; Binkowski et al., Methods in molecular biology. 756:263-271). HEK-293 cells were further transfected to stably express the hPTHR1, hPTHR1-H223R, or hPTHR1-T410P. The cells were seeded into 96-well white plates and were assayed 24 to 48 hours post-confluency. Assays were performed at room temperature in CO2-independent culture media (Life Technologies, Corp., Carlsbad, Calif.) containing 0.1% BSA (CIDB). The cells were pre-loaded with luciferin (0.5 mM in CIDB) for 15 minutes, then PTH peptides were added at varying concentrations. cAMP-dependent luminescence was measured at two-minute intervals using a PerkinElmer Envision plate reader. The time at which maximum luminescence (cps) observed with agonist alone, typically at 10-20 minutes after agonist addition, was used to obtain data from wells containing antagonist with or without agonist, to thus generate antagonist ligand dose-response curves. The resulting cps values were then plotted against ligand concentration using GraphPad Prism 7.0 software and a four-parameter logistics curve fitting equation, which yielded parameters of inhibitory potency (pIC50). Pharmacological properties of the ligands were assessed in cells expressing the PTHR1 and the GloSensorTM cAMP reporter. The assays used GP-2.3 cells, derived from HEK293 cells by stable transfection with the hPTHR1 and GloSensorTM, as well as SGS-72 cells, which are derived from the human osteosarcoma cell line, Saos-2, in which is endogenously expressed the hPTHR1, by stable transfection with GloSensorTM. Binding of representative polypeptides to the PTHR1 was assessed in GP-2.3 cells by radioligand competition methods (FIGS. 1A and 1B, Table 3). […] In Table 5, antagonist assays were performed in SGS-72 cells (SaOS2 cells with stable GloSensorTM cAMP reporter) at room temperature. […] The mean (±sem) concentration of antagonist that inhibited the maximum agonist-induced response observed in the absence of antagonist (at 40 minutes) is reported in units of -log M (pIC50), and the corresponding nanomolar value is shown below each pIC50 value. Data are means of the number of seven experiments. The PTH(1-34)-induced maximum luminescence was 500,000 cps and the basal was 5,000 cps. TMR indicates Lys13 modified at epsilon amino function with TMR. The data are illustrated in FIG. 7A. […] Date are means (±SEM) of the number of separate experiments indicated by n.
Compound,duration of sustained inhibition of agonist cAMP response after washout ([1]; pre-treated with antagonist 15 minutes) [h],"inhibition of the cAMP response induced by the subsequently applied PTHR1 agonist ligand ([1]; pre-treated with antagonist (e.g., 10 μM, 3.3 μM, 1 μM) 15 minutes) [%]",pIC50 (Table 4) [2],IC50 [2] [nM],pIC50 PTH(1-34) (Table 6) [3],IC50 [3] [nM]
"CC[C@H](C)[C@H](N)C(=O)N[C@@H](CCC(N)=O)C(=O)N[C@@H](CC(C)C)C(=O)N[C@@H](CCSC)C(=O)N[C@@H](Cc1c[nH]cn1)C(=O)N[C@@H](CCC(N)=O)C(=O)N[C@@H](CCCNC(=N)N)C(=O)N[C@@H](C)C(=O)N[C@@H](CCCCN)C(=O)N[C@@H](Cc1c[nH]c2ccccc12)C(=O)N[C@H](C(=O)N[C@@H](CCC(N)=O)C(=O)N[C@@H](CC(=O)O)C(=O)N[C@@H](C)C(=O)N[C@@H](CCCNC(=N)N)C(=O)N[C@@H](CCCNC(=N)N)C(=O)N[C@@H](CCCNC(=N)N)C(=O)N[C@@H](C)C(=O)N[C@@H](Cc1ccccc1)C(=O)N[C@@H](CC(C)C)C(=O)N[C@@H](Cc1c[nH]cn1)C(=O)N[C@@H](CCCCN)C(=O)N[C@@H](CC(C)C)C(=O)N[C@H](C(=O)N[C@@H](C)C(=O)N[C@@H](CCC(=O)O)C(=O)N[C@H](C(=O)N[C@@H](Cc1c[nH]cn1)C(=O)N[C@H](C(=O)N[C@@H](C)C(=O)N[C@@H](CCC(=O)O)C(=O)N[C@H](C(N)=O)[C@@H](C)CC)[C@@H](C)O)[C@@H](C)CC)[C@@H](C)CC)[C@@H](C)CC [compound 1950, LA-PTH(5-36)] (H-IQLMHQRAKWIQDARRRAFLHKLIAEIHTAEI-NH2; N-terminus assumed)",> 2,> 90,,,,
"CC[C@H](C)[C@H](N)C(=O)N[C@@H](CCC(N)=O)C(=O)N[C@@H](CC(C)C)C(=O)N[C@@H](CCSC)C(=O)N[C@@H](Cc1c[nH]cn1)C(=O)N[C@@H](CCC(N)=O)C(=O)N[C@@H](CCCNC(=N)N)C(=O)N[C@H](Cc1c[nH]c2ccccc12)C(=O)N[C@@H](CCCCNC(=O)c1ccc2c(c1)C(=O)OC21c2ccc(N(C)C)cc2Oc2cc(N(C)C)ccc21)C(=O)N[C@@H](Cc1c[nH]c2ccccc12)C(=O)N[C@H](C(=O)N[C@@H](CCC(N)=O)C(=O)N[C@@H](CC(=O)O)C(=O)N[C@@H](C)C(=O)N[C@@H](CCCNC(=N)N)C(=O)N[C@@H](CCCNC(=N)N)C(=O)N[C@@H](CCCNC(=N)N)C(=O)N[C@@H](C)C(=O)N[C@@H](Cc1c[nH]c2ccccc12)C(=O)N[C@@H](CC(C)C)C(=O)N[C@@H](Cc1c[nH]cn1)C(=O)N[C@@H](CCCCN)C(=O)N[C@@H](CC(C)C)C(=O)N[C@H](C(=O)N[C@@H](C)C(=O)N[C@@H](CCC(=O)O)C(=O)N[C@H](C(=O)N[C@@H](Cc1c[nH]cn1)C(=O)N[C@H](C(=O)N[C@@H](C)C(=O)N[C@@H](CCC(=O)O)C(=O)N[C@H](C(N)=O)[C@@H](C)CC)[C@@H](C)O)[C@@H](C)CC)[C@@H](C)CC)[C@@H](C)CC [compound 1953, TMR-dW12, W23-LA-PTH(5-36)] (H-IQLMHQR[dW]K(5TAMRA)WIQDARRRAWLHKLIAEIHTAEI-NH2; N-terminus assumed)",,,6.80 ± 0.08 -log M,160,8.49 ± 0.11,3.23
"CC[C@H](C)[C@H](N)C(=O)N[C@@H](CCC(N)=O)C(=O)N[C@@H](CC(C)C)C(=O)N[C@@H](CCSC)C(=O)N[C@@H](Cc1c[nH]cn1)C(=O)N[C@@H](CCC(N)=O)C(=O)N[C@@H](CCCNC(=N)N)C(=O)N[C@H](Cc1c[nH]c2ccccc12)C(=O)N[C@@H](CCCCNC(=O)c1ccc2c(c1)C(=O)OC21c2ccc(N(C)C)cc2Oc2cc(N(C)C)ccc21)C(=O)N[C@@H](Cc1c[nH]c2ccccc12)C(=O)N[C@H](C(=O)N[C@@H](CCC(N)=O)C(=O)N[C@@H](CC(=O)O)C(=O)N[C@@H](C)C(=O)N[C@@H](CCCNC(=N)N)C(=O)N[C@@H](CCCNC(=N)N)C(=O)N[C@@H](CCCNC(=N)N)C(=O)N[C@@H](C)C(=O)N[C@@H](Cc1c[nH]c2ccccc12)C(=O)N[C@@H](CC(C)C)C(=O)N[C@@H](Cc1c[nH]cn1)C(=O)N[C@@H](CCCCN)C(=O)N[C@@H](CC(C)C)C(=O)N[C@H](C(=O)N[C@@H](C)C(=O)N[C@@H](CCC(=O)O)C(=O)N[C@H](C(=O)N[C@@H](Cc1c[nH]cn1)C(=O)N[C@H](C(=O)N[C@@H](C)C(=O)N[C@@H](CCC(=O)O)C(=O)N[C@H](C(=O)N[C@@H](CS)C(N)=O)[C@@H](C)CC)[C@@H](C)O)[C@@H](C)CC)[C@@H](C)CC)[C@@H](C)CC [compound 1976, TMR-dW12, W23, C37-LA-PTH(5-37)] (H-IQLMHQR[dW]K(5TAMRA)WIQDARRRAWLHKLIAEIHTAEIC-NH2; N-terminus assumed)",,,5.71 ± 0.06 -log M,1960,7.73 ± 0.15,18.5
